Three molecules from patent publication US20240091372A1, “ANTI-DOPPEL ANTIBODY DRUG CONJUGATES” (SEOUL NATIONAL UNIVERSITY R&DB FOUNDATION, priority 2022, published 2024) can be followed below.

One test has as its system HCT116 cells. The experiment in a line: Cytotoxicity assay on doppel-expressing cell line HCT116. The test is classed as cell-based. Conditions: HCT116, 72 hours, FIG. 1. As for the experimental part:
The ability of anti-doppel ADCs as described herein to deliver a potent cytotoxic drug and eliminate doppel-expressing cells was assessed.
A cell line expressing doppel, HCT116, was selected and cultured with increasing concentrations of ADC. After 72 hours, viability of each culture was assessed. IC50 values were calculated by logistic non-linear regression and reported as nM. […] (FIG. 1)

The next test relates to HCT116 xenograft tumor. The experiment in a line: In vivo efficacy in HCT116 xenograft tumor model. More on the design: species or system balb-c/nu mice. Conditions: for tumor growth suppression, ADCs with different linkers: HCT116 xenograft, FIG. 6. As for the experimental part: To assess the anti-tumor efficacy of anti-doppel ADCs, an HCT116 xenograft tumor model was used. HCT116 cells (1×10^^7 cells/mouse) were inoculated into the left flank of balb-c/nu mice. When the average tumor volume reach 70-100 mm^3, ADC was administered intravenously every 4 days for a total of 4 times. Tumor volume was measured every 4 days until the end of the experiments.

B1: 3H9-KGDEVD-MMAE: MMAE linked to anti-doppel human mAb 3H9 by caspase-cleavable peptide linker Lys-Gly-Asp-Glu-Val-Asp (conjugate)
heavy: EVQLVESGGGLVQPGGSLRLSCAASGFTFSSYAMSWVRQAPGKGLEWVSGISGSGSRTDYADSVKGRFTISRDNSKNTLYLQMNSLRAEDTAVYYCAKVYTYTRGFAFDLWGQGTLVTVSS[letters of human IgG1 constant region left out]
light: DIQMTQSPSSLSASVGDRVTITCRASQSISNYLNWYQQKPGKAPKLLIYAASTLQSGVPSRFSGSGSGTDFTLTISSLQPEDFATYYCQQSYSFPYTFGQGTKVEIKRTVAAPSVFIFPPSDEQLKSGTASVVCLLNNFYPREAKVQWKVDNALQSGNSQESVTEQDSKDSTYSLSSTLTLSKADYEKHKVYACEVTHQGLSSPVTKSFNRGEC
For B1, in the test on HCT116 cells, the “growth inhibition of doppel expressing cell line (HCT116)” value (“growth inhibition” below) was “inhibited growth”. For the same molecule, the “tumor growth suppression, ADCs with different linkers” value in the test on HCT116 xenograft tumor is on record as “effectively suppressed tumor growth”. Further, the “tumor growth suppression (KGDEVD-MMAE ADCs)” value in the test on HCT116 xenograft tumor (same tumor model, FIG. 7) was “effectively suppressed tumor growth”.

B2: 3H9-vc-MMAE: ADC of MMAE, mAb 3H9 and a cathepsin B-cleavable Val-Cit linker (conjugate)
heavy: B1 heavy
light: B1 light
modifications: non-natural residues
notes: ADC of MMAE, mAb 3H9 and a cathepsin B-cleavable Val-Cit linker
Regarding B2, the “growth inhibition” value in the test on HCT116 cells is “inhibited growth”. Also, in the test on HCT116 xenograft tumor, the “tumor growth suppression, ADCs with different linkers” value was “effectively suppressed tumor growth”. Moreover, the “dose-dependency of anti-tumor effect” value with HCT116 xenograft tumor (same tumor model and procedure, FIG. 5) is recorded as “dose-dependent effect”.

B3: 3H9 mAb: anti-doppel human monoclonal antibody 3H9, heavy chain SEQ ID NO:15, light chain SEQ ID NO:43 (antibody)
heavy: B1 heavy
light: B1 light
On to B3, for which, in the test on HCT116 cells, the “growth inhibition” value is on record as “did not”.
